Drawing on publication PMC11166463, this text covers binding for four substances.

Protein sequences, listed by entry. Tags and fused reporters are not part of them.
UniProt P51532: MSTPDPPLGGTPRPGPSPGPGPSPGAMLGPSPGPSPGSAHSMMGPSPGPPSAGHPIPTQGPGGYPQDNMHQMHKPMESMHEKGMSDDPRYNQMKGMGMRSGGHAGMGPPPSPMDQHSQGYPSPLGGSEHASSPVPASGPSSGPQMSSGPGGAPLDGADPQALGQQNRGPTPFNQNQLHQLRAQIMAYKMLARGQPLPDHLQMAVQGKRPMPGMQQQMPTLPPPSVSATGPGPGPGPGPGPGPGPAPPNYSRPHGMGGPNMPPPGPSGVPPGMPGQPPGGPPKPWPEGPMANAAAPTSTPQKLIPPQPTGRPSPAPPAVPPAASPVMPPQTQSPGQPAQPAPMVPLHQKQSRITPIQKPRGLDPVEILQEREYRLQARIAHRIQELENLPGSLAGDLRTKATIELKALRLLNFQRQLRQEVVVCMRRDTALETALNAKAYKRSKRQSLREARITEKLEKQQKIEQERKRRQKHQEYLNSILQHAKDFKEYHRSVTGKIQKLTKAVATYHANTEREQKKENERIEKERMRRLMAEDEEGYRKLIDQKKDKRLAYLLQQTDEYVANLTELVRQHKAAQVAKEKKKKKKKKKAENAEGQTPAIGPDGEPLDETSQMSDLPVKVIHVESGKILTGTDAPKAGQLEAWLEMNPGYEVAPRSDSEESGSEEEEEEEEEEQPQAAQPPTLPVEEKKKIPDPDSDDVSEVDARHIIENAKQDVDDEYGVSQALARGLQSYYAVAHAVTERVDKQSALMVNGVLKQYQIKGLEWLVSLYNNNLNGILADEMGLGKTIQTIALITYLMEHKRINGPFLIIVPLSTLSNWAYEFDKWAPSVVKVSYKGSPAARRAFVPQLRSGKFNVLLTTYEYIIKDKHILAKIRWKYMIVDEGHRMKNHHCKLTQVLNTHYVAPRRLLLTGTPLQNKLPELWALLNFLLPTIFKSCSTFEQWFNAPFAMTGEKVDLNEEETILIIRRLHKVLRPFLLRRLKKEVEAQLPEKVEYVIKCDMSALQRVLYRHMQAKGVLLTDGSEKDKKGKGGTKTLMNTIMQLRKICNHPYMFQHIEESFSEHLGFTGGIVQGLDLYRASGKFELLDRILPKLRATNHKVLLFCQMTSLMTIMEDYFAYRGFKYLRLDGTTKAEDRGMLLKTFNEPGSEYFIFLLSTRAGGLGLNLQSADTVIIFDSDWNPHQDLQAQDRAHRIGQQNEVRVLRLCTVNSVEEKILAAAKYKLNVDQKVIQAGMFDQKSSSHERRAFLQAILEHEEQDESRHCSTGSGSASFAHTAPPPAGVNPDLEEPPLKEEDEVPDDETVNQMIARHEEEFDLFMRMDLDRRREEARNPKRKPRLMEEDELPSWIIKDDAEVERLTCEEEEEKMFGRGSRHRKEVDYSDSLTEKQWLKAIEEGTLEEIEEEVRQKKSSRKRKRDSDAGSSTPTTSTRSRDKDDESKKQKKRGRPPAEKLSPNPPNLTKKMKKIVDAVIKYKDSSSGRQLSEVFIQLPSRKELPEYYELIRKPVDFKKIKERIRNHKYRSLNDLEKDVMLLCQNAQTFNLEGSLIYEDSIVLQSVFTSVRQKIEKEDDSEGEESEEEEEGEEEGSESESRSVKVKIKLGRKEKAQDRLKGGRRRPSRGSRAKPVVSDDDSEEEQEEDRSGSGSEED
UniProt P51531: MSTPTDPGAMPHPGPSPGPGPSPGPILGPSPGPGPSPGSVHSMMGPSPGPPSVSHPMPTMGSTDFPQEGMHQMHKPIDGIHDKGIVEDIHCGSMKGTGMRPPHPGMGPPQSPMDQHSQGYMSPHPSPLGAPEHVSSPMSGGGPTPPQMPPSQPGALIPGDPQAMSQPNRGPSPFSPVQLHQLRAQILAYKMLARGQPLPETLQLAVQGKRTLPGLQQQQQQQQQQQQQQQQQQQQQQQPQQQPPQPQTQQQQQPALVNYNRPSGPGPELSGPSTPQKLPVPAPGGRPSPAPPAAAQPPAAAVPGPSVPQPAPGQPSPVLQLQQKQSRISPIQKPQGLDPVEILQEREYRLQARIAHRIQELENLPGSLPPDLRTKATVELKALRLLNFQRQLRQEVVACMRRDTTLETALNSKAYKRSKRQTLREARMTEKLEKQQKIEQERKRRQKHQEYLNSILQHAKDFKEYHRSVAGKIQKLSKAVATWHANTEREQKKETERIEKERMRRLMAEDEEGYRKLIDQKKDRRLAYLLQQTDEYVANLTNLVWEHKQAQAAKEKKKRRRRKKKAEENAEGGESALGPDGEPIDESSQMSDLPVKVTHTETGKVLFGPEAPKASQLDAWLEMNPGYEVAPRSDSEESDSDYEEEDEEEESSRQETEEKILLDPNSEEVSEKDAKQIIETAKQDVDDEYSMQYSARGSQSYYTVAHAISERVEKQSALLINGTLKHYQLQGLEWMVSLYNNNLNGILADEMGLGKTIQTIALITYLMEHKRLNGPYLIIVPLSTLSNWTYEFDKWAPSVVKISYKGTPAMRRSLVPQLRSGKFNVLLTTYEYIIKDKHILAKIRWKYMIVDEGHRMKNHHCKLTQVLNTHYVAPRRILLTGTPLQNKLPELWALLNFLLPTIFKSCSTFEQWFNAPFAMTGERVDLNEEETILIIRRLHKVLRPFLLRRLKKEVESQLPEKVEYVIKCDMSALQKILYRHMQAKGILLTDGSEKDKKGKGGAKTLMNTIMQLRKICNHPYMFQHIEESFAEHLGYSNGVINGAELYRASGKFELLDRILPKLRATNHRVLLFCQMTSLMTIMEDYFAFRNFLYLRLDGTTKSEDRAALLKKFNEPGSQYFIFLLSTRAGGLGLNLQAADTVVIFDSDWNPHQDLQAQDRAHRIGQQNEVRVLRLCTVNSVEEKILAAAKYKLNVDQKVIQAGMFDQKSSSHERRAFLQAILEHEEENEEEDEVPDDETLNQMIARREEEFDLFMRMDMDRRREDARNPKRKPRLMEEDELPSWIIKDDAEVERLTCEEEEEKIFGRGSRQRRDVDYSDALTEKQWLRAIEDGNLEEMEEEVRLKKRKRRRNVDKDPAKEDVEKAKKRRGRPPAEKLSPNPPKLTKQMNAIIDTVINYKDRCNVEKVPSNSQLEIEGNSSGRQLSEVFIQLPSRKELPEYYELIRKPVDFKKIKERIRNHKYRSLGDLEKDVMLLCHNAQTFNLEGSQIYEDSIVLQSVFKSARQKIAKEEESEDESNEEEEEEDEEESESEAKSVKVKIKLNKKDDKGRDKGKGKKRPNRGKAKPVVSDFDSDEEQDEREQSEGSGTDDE
UniProt P53350: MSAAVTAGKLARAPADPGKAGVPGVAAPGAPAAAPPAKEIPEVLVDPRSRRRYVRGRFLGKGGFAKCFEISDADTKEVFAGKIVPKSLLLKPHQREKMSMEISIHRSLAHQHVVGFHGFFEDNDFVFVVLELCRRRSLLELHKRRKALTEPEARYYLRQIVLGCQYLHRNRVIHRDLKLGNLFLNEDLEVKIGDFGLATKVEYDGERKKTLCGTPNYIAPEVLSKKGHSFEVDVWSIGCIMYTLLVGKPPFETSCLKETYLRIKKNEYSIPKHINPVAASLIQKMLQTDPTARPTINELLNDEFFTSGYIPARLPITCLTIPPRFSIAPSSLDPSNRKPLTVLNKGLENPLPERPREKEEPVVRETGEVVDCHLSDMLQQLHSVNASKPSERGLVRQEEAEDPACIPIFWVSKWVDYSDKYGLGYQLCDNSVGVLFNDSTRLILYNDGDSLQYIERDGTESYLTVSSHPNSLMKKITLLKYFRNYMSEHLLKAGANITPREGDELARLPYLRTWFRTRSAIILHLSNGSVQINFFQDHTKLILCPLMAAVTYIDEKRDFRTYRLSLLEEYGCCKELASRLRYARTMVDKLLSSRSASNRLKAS
UniProt Q8N4N8: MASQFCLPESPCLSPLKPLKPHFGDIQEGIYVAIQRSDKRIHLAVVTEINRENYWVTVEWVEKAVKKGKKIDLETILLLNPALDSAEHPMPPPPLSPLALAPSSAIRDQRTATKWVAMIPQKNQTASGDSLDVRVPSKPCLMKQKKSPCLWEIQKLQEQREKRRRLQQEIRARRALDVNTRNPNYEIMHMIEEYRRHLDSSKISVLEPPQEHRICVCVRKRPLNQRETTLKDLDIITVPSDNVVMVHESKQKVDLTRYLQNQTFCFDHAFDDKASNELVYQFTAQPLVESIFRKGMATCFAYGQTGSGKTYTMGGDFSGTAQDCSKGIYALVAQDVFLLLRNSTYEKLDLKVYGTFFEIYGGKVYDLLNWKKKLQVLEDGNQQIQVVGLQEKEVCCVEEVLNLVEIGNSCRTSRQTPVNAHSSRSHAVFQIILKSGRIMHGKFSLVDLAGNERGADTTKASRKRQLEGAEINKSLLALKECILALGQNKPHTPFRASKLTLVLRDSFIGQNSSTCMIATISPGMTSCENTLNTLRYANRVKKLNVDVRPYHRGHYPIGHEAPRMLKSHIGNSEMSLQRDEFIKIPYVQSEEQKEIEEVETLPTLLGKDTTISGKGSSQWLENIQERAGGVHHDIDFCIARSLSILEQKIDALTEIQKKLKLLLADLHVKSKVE
UniProt Q8TAQ2: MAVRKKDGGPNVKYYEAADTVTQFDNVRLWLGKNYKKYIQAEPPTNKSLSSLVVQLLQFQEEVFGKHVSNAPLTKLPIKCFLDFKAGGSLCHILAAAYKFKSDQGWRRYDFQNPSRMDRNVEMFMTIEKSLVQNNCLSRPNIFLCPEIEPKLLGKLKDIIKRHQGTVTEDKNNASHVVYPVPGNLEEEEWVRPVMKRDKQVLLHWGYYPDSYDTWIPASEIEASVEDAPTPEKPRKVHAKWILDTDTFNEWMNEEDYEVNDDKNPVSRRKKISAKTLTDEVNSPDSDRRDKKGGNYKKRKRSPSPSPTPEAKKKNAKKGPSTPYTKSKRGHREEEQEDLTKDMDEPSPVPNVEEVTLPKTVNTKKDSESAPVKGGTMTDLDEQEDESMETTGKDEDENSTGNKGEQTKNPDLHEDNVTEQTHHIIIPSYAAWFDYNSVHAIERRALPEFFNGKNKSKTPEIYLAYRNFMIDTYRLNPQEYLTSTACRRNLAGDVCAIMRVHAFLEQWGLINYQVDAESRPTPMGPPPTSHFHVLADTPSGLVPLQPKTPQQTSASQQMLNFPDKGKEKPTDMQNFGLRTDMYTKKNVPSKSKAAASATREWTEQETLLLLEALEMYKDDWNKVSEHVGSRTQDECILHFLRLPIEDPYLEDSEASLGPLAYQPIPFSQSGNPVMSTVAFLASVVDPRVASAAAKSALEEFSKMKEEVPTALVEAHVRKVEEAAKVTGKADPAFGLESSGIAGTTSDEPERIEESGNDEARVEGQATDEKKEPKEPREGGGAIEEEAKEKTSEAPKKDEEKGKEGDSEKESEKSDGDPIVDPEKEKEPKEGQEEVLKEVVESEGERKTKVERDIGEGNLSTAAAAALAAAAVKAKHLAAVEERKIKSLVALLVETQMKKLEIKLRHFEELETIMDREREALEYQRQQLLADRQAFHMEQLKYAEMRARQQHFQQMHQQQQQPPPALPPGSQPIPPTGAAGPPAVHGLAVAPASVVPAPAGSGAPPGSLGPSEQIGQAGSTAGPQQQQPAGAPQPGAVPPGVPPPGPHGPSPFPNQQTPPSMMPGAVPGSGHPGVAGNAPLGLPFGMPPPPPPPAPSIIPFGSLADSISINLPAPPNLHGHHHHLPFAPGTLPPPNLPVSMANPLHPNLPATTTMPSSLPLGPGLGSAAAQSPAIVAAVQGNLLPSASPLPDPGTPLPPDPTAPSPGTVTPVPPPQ
UniProt Q96GD4: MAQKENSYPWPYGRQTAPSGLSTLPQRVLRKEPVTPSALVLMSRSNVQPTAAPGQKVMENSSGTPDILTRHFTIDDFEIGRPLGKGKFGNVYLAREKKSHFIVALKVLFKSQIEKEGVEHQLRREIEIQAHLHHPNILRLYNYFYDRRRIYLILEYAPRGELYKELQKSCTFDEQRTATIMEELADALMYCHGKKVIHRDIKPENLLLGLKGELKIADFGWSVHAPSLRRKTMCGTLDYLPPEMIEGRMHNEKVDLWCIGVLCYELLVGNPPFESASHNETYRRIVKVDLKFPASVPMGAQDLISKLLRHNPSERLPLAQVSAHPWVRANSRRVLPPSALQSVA

Results are given in words; binding and its absence hold for the method and conditions named. Binding seen in cells or lysates may run through a third protein. Some entries that bind do so weakly or less than the wild type. For some assays here: Sequences can lack the tags named with a protein.

One assay concerns the target GST–DPF3b (human) (UniProt Q92784). Nature of the assay: pull-down; GST recombinant proteins immobilised on glutathione-conjugated sepharose beads, incubated with lysates of mock or transfected U2OS cells at 4°C for 2 h, western blot; only the target purified. (In general: A western blot detects proteins with antibodies after separation by electrophoresis.)
The next assay concerns the target T1, GST–DPF3a (human) (UniProt Q92784).
T1 sequence: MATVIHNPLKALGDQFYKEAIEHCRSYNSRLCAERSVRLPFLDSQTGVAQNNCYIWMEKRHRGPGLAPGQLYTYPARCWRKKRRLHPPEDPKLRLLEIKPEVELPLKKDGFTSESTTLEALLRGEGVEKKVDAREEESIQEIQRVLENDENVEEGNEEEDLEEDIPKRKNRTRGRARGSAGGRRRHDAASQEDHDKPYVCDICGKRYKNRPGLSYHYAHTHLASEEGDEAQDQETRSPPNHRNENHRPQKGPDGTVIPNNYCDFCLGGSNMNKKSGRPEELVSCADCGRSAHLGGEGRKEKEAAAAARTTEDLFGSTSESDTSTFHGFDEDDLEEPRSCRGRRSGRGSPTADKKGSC
The assay is described as above.

Assay [1] concerns the target Brg1 (SMARCA4), endogenous in U2OS cells (human (endogenous in U2OS)) (UniProt P51532). The assay can be described thus: co-IP; endogenous proteins from U2OS lysate (20 mM Tris-HCl pH 7.5, 150 mM NaCl, 5 mM EDTA, 5 mM EGTA, 1% Triton X-100), antibody overnight at 4°C, protein A/G agarose beads, four washes, western blot.
For assay [2], the target named is Brm (SMARCA2), endogenous in U2OS cells (human (endogenous in U2OS)) (UniProt P51531). Described as above.

On to FLAG–PLK1 (from UniProt P53350 1-603), for which the binding entry in the assay with GST–DPF3b (human) and with GST–DPF3a (human) was “binds” each time.
As for Myc–KIF2B (from UniProt Q8N4N8 1-673), the binding result with GST–DPF3b (human) and with GST–DPF3a (human) was “no binding” in each case.
Consider “BAF170 (SMARCC2), endogenous in U2OS cells (from UniProt Q8TAQ2 1-1214)”, for which the binding entry in assay [1] and in assay [2] was “binds” throughout.
Consider HA–Aurora B (from UniProt Q96GD4 1-344), for which the binding result with GST–DPF3b (human) and with GST–DPF3a (human) was “binds” in each case.
